The campaign covered roughly 150,000 compounds. About 540 (0.36%) showed an effect of 50% or more. This is one part of the list.
Test system: Plasmodium falciparum
Experiment: Primary screen in NF54 nanoGlo assay, in single point, at 2uM, 72h; a lower Z score goes with more inhibition
Type: functional, Erythrocyte
Conditions: timepoint 72 hour

Row | SMILES | % Inhibition [%] | Z score
1 | CCC[C@@]1(C2CCN(C(=O)c3onc4c3CCCC4)CC2)NC(=O)N(CCc2ccccn2)C1=O | -11 | 1.42
2 | Cn1cnn(CC(=O)NC[C@H]2CCOC3(CCC3)C2)c1=O | 3 | -0.37
3 | Cc1nnc(Cc2ccc(-n3ccnc3-c3ccnc(C(C)C)n3)cc2)[nH]1 | -12 | 2.05
4 | O=C(CC(=O)OCC(=O)N1CCCCCC1)NCC(F)(F)F | -7 | 1.08
5 | O=C(Nc1ccc(-c2ccco2)cc1)[C@H]1CCCN(Cc2nc3c(s2)CCCC3)C1 | 9 | -1.06
6 | O=C(c1cc2ccccc2o1)N1CC(Nc2ccncn2)C1 | -21 | 4.28
7 | COC(=O)CN1CCCN(CC(=O)Nc2ccc(C)c(C)c2)CC1 | -3 | 0.21
8 | CC[C@H](NS(=O)(=O)c1cccc(C(=O)N2CCCC2)c1)c1nc(C)no1 | 2 | -0.29
9 | O=C(NCCn1c(=O)[nH]c2ccsc2c1=O)c1ccn[nH]1 | -3 | 0.6
10 | O=S(=O)(c1cccc(F)c1)N1CCOc2ccc(COCc3ccccc3)cc2C1 | 6 | -0.9
11 | CC(C)=CCC[C@@]1(C)CCC(=O)N(C2CCN(c3cnccn3)CC2)C1 | -6 | 1.04
12 | CC(=O)NCC(=O)N(Cc1ccccc1C(F)(F)F)C1CCCC1 | -4 | 0.48
13 | CC(=O)c1cc(CN2CCC[C@H](c3nc(C)n[nH]3)C2)n(C)c1 | -8 | 1.29
14 | N#Cc1cnc(N[C@H]2CC23CC3)c(F)c1 | -11 | 2.11
15 | CCOC(=O)N1CCN(C(=O)c2ccsc2)CC1 | -2 | 0.26
16 | O=C(c1cncc(Br)c1)N1CCC[C@H](Oc2ccncn2)C1 | 11 | -1.53
17 | CCC(=O)N(CC1CCN(C2Cc3ccccc3C2)CC1)C[C@H]1CCCO1 | -9 | 1.83
18 | N#Cc1nccnc1O[C@H]1CCN(C(=O)Cc2ccc(Cl)cc2)C1 | -6 | 1.04
19 | c1ccc(-c2onc3cc4c(cc23)OCCO4)cc1 | -25 | 2.66
20 | Cc1cccc(NC(=O)CN2CCC3(CCO3)CC2)c1 | -1 | 0.22
21 | Cc1ccc(C)c(C(O)CN(C)CC2CCS(=O)(=O)C2)c1 (stereo not drawn) | -16 | 1.65

Row | SMILES | % Inhibition [%] | Z score
22 | CC(C)(C)c1csc(-c2cnccn2)n1 | -15 | 1.5
23 | CC(C)COc1ccc(C(C)(C)N)cc1 | -1 | 0.15
24 | O=C(OCc1ccccc1)[C@@H]1CCCN1C(=O)CCc1cccnc1 | -10 | 1.37
25 | O=C(Nc1cnc(-n2ccnc2)nc1)C(c1ccccc1)c1ccccc1 | 32 | -2.7
26 | O=C(CCc1ccc(F)cc1)Nc1cccc(-c2n[nH]c(=O)[nH]2)c1 | 8 | -1.28
27 | O=C(NCC1CCCO1)C1CCCN(c2cc3c(nn2)CCC3)C1 (stereo not drawn) | 2 | -0.28
28 | Cc1ccc(S(=O)(=O)N2CCC(N3CCCCCC3)CC2)cc1 | -10 | 1.27
29 | COc1ccc(Cc2nc(CCO)n(-c3cc(C)ccn3)n2)cc1OC | -7 | 0.93
30 | N#Cc1nc(C2CC2c2ccccc2)oc1N1CCCCCC1 (stereo not drawn) | 3 | -0.35
31 | Cn1c(=O)cnc2ccc(N3CCCC3)nc21 | 0 | 0.07
32 | Cc1c(C(=O)N2CCC[C@H](NC(=O)N(C)C)C2)cnn1C(C)C | 8 | -1.22
33 | Cc1cccc(C(=O)Nc2cc(C(=O)O)ccc2N(C)CCc2c(C)nn(C)c2C)c1 | -9 | 1.34
34 | O=S(=O)(c1ccc2c(c1)OCCCO2)N(CCc1nc2ccccc2s1)S(=O)(=O)c1ccc2c(c1)OCCCO2 | -3 | 0.68
35 | N#Cc1ccc(CN2CCN3C(=O)c4ccccc4OCC[C@@H]4CCC[C@@H](CNC(=O)[C@@H]3C2)O4)cc1 | 21 | -2.76
36 | CCn1ncc(CN2CCC3(CC[C@@H]3OCc3nc(C)no3)CC2)c1C | -14 | 1.79
37 | NC(=O)Cc1nc(CCCc2cn[nH]c2)n(-c2ccncc2)n1 | 8 | -1.4
38 | COCCC(=O)N(Cc1cscn1)c1ccccc1 | -4 | 0.49
39 | CCN(Cc1cc(CC(C)C)[nH]n1)CC(F)(F)F | 5 | -0.62
40 | O=C(C1CC(=O)N(c2ccc(F)cc2)C1)N1CCC(c2ccccc2F)S(=O)(=O)CC1 (stereo not drawn) | -7 | 1.25
41 | CC(C)c1nc(CN(C)S(=O)(=O)Cc2ccc(Cl)cc2F)cs1 | 0 | 0
42 | Cc1cc(C)cc(N(C(=O)C2CCN(S(C)(=O)=O)CC2)c2nc(-c3ccc(F)cc3)cs2)c1 | -7 | 0.9

Row | SMILES | % Inhibition [%] | Z score
43 | CCn1c(C)cc(O)c([C@H](c2ccncc2)N2CCC(Cc3ccccc3)CC2)c1=O | 15 | -1.87
44 | Cc1cnccc1CC(=O)N1CCC(C)C1c1cccc(F)c1 (stereo not drawn) | -9 | 1.16
45 | COc1ccc(COCc2ncc[nH]2)cn1 | 30 | -3.38
46 | COCCN1CCN(C(=O)[C@@H]2COc3ccccc3C2)CC1=O | -14 | 2.34
47 | COCc1ccc(C(=O)N2CCNC(=O)[C@@H]2Cc2ccccc2)s1 | 5 | -0.91
48 | CC(C)(C)C[C@H]1CCN(C(=O)NCc2ccc(=O)[nH]n2)C1(C)C | -4 | 0.41
49 | O=C(NCC#CCN1CCc2ccccc2C1)c1ccc(=O)[nH]n1 | 5 | -0.54
50 | CC(C)c1ncc(CN(C)Cc2ncon2)cn1 | -10 | 1.28
51 | CN(CC(=O)c1ccc(O)cc1)C(=O)CCCN1CCCCC1 | 13 | -1.73
52 | CC(C)Nc1ncc(-c2nc(CC(N)=O)nn2-c2cccnc2)cn1 | -2 | 0.34
53 | CC1CCN(C(=O)COCc2nnc(C(=O)Nc3ccc(F)cc3)s2)CC1 | -10 | 1.48
54 | C[C@@H](CCN1CC(N2CCOCC2)C1)c1ccccc1 | -3 | 0.5
55 | CN(Cc1ccc(Cl)c(F)c1)C(=O)NC1CCCC(C(N)=O)C1 (stereo not drawn) | 0 | -0.04
56 | CC(=O)Nc1c(-c2ccccc2)c(C)nn1-c1ccc(C(=O)N2CCN(c3ncccn3)CC2)cc1 | 11 | -1.25
57 | CN(C)C1(CNS(=O)(=O)CCOc2ccccc2F)CCCCC1 | -2 | 0.19
58 | CC(=O)Nc1nc(C(=O)NCCOc2ccc3c(c2)OCO3)cs1 | -8 | 1.52
59 | C[C@@]1(C2CCN(Cc3ccccc3)CC2)NC(=O)N(C2Cc3ccccc3C2)C1=O | 17 | -2.18
60 | CCn1ccc(C(=O)N2CC[C@H](c3nc(CCOCC4CCOCC4)no3)C2)n1 | -10 | 1.25
61 | CCNc1nc(C)c(C(=O)N(C)Cc2cc(C)on2)s1 | -18 | 2.63
62 | Cc1ccc(F)cc1S(=O)(=O)N(Cc1cccnc1)C1CC1 | -2 | 0.29
63 | CCNC(=NCc1cccc(N(C)C)n1)NCC | -10 | 1.01

Row | SMILES | % Inhibition [%] | Z score
64 | CCn1cc(S(=O)(=O)NCc2nc(-c3cccs3)n[nH]2)cn1 | -1 | 0.12
65 | Cc1cc(NC(=O)CN(C)S(C)(=O)=O)cc(C)c1Br | 1 | -0.21
66 | O=C(Nc1ccc(-c2nccn2C(F)F)cc1)N1CCC[C@@H]1CO | -13 | 2.23
67 | CC(C)CN1C[C@@H](c2ncnn2CCO)CC1=O | -14 | 2.56
68 | CC[C@H](NC(=O)NCc1ncccn1)c1ccc(OC(F)F)cc1 | 17 | -2.16
69 | CN(C)C(=O)N1CCN(c2ccc3ccc(F)cc3n2)CC1 | -16 | 1.92
70 | CC(C)(C)OC(=O)NCC1CCN(C(=O)[C@@H]2Cc3ccccc3O2)CC1 | 2 | -0.33
71 | O=C1c2ccccc2C(=O)N1C[C@H]1CCCCO1 | -4 | 0.46
72 | CN(C)[C@@H]1CN(C(=O)c2ccncc2)CC[C@@]1(O)c1ccccc1 | 0 | 0.04
73 | CC(=O)NCc1ccc(-c2noc(Cc3c(Cl)cccc3Cl)n2)s1 | 0 | -0.05
74 | CC(=O)N[C@@H](Cc1c[nH]c2ccccc12)C(=O)N1CCC(C)CC1 | 1 | -0.06
75 | O=C(NC1CC1)NC1CCN(C(=O)c2cccc(F)c2)CC1 | -3 | 0.44
76 | O=C(NC1CCCC1)N1CC(n2nccn2)C1 | 2 | -0.24
77 | O=C(Nc1cccc(C(F)(F)F)c1)c1ccccc1C(=O)c1ncc[nH]1 | -11 | 1.51
78 | CC(C)N1CCN(C(=O)CCc2nnc(Cc3cccc(C(F)(F)F)c3)o2)CC1 | -13 | 1.93
79 | CN(Cc1ccccc1)[C@@H]1COC2(C1)CN(C(=O)COCc1ccccc1)C2 | -3 | 0.4
80 | CCc1nc(CN(C)c2cc(C(=O)N3CCOCC3)c3ccccc3n2)cs1 | 5 | -0.59
81 | CCc1nc2cc(C(=O)NCCc3c[nH]c4ccccc34)cc(NC(=O)c3ccccc3OC)c2n1C | -10 | 1.39
82 | Cc1nn(Cc2cccc(C(F)(F)F)c2)c(=O)n1-c1cccc(C(F)(F)F)c1 | 0 | -0.06
83 | O=C(c1ccc(-c2ccncc2F)cc1)N1CC[C@@H](O)C1 | 2 | -0.39
84 | CCCc1nc(C(=O)Nc2cc(-c3nnc(C)o3)ccc2OC)cs1 | 2 | -0.41

— ChEMBL document CHEMBL4888484, “Replenishing the malaria drug discovery pipeline: Screening and hit evaluation of the MMV Hit Generation Library 1 (HGL1) against asexual blood stage Plasmodium falciparum ,using a nano luciferase reporter read-out” (2022)
